Results: PubChem BioAssay AID485281 (National Center for Advancing Translational Sciences (NCATS), 2010)
The whole screen tested about 350,000 compounds, of which about 260 (0.074%) were called active. The shares of active, inactive and inconclusive entries below differ from those in the screen. Calls come from the whole dose curve; as a rule, active = well fitted inhibition curve with a large enough effect; inconclusive = small, poorly fitted or top-dose-only effect; inactive = no such curve, though single readings can be large or run the other way. Potencies of inconclusive entries are doubtful fits and often do not repeat.
% is set by controls: 0 for no effect and ±100 for the full control effect; potency is the fitted concentration of half-maximal effect; tags give direction and shape of the fitted curve.
Note: nearly all actives have a fitted effect of over 20% in size.

The compounds below were run against Ferritin light chain (Equus caballus) (UniProt P02791) (assay: qHTS Assay for Identification of Novel General Anesthetics). Conditions: apoferritin/1-aminoanthracene competitive binding, fluorescence; activity change, negative = displacement: at 77.5 µM (top of the series).
Sequence of UniProt P02791 (P02791 whole entry, looked up): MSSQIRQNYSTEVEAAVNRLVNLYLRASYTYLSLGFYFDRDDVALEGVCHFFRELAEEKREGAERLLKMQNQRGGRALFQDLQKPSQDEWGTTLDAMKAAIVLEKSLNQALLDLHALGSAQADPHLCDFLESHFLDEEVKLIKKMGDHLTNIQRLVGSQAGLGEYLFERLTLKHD
Summary of the method: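 Horse-spleen apoferritin (10 uM) in 50% saturated 1-aminoanthracene in PBS was incubated 10 min at room temperature with compound. Fluorescence (ex 380, em 535 nm) was normalized to free and bound 1-AMA, with concentration-response fitted by a four-parameter Hill equation.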
With `CCOc1ccc(NC(=O)C(CC(C)C)N2Cc3ccccc3C2=O)cc1` (configuration not stated) the Potency was inconclusive: 4.47 µM [inhibitor, single point].
For `COC(=O)C1=C(C)N(C)C(=O)NC1c1cc(Cl)cc(Cl)c1OC` (configuration not stated), the Potency was inconclusive: 22.4 µM [inhibitor, partial curve].
With `COCCCNC(=O)c1nn(C)c2c1CS(=O)(=O)c1ccccc1-2` the Potency was “inactive”.
With `CC1CCN(C(=O)c2ccc3c(c2NCCO)C(=O)c2ccccc2C3=O)CC1` the Potency was inconclusive: 39.8 µM [inhibitor, partial curve].
With `CCOC(=O)C1=C(Cn2cnc3ccccc32)NC(=O)NC1c1ccc(Cl)cc1` (configuration not stated) the Potency was inconclusive: 35.5 µM [inhibitor, partial curve].
`COc1ccc(-c2cn3c(n2)sc2cc(C(=O)NC(C)C45CC6CC(CC(C6)C4)C5)ccc23)cc1` (configuration not stated) was tested, and the Potency was inconclusive: 25.1 µM [inhibitor, partial curve].
For `O=C(Nc1ccc(N2CCOCC2)c(Cl)c1)c1cc(F)c(F)cc1Cl`, the Potency was inconclusive: 44.7 µM [inhibitor, partial curve].
With `c1ccc(-c2nc3c(ccc4ccccc43)[nH]2)nc1` the Potency was “inactive”.
With `O=S(=O)(Cc1ccccc1Cl)NCCc1ccc(F)cc1` the Potency was inconclusive: 12.6 µM [inhibitor, partial curve].
For `CC1c2ccccc2CN1CC1=NCCN1` (configuration not stated), the Potency was “inactive”.
`c1ccc(CNc2ncnc3c2ncn3C2CCCCO2)cc1` (configuration not stated) was tested, and the Potency was inconclusive: 31.6 µM [inhibitor, single point].
For `CC1CC(NC(=O)c2cc3c(=O)n4ccccc4nc3n2C)CC(C)(C)C1` (configuration not stated), the Potency was “inactive”.
With `CO[C@H]1C[C@@H]2C[C@H](O)C[C@@H](CC(=O)O[C@@H](/C=C\CC(C)C)C[C@@H]3CC[C@H](C)[C@@H](C1)O3)O2` the activity change, negative = displacement was inactive: 5.18% [at 15.3 µM].
For `O=C(CC1N=C2c3ccccc3N=C(SCC(=O)Nc3ccc(F)cc3)N2C1=O)NCc1ccco1` (configuration not stated), the Potency was “inactive”.
With `Cc1ccc(C(=O)Nc2nnc(S(=O)(=O)N(C)Cc3ccc(Cl)cc3)s2)cc1` the Potency was inconclusive: 56.2 µM [inhibitor, partial curve].
With `CC(Cc1cccs1)NC(=O)Nc1cccc(Cl)c1` (configuration not stated) the Potency was inconclusive: 50.1 µM [inhibitor, partial curve].
In the case of `CC1CCCC(C)N1C(=O)Cn1nnc(-c2ccc([N+](=O)[O-])cc2)n1` (configuration not stated), the Potency is reported as inconclusive: 25.1 µM [inhibitor, single point].
In the case of `FC(F)(F)c1ccccc1NC(=S)N1CCCCCC1`, the Potency is reported as inconclusive: 20 µM [inhibitor, partial curve].
With `Cc1ccc(-c2nnc3n2N=C(c2ccccc2Br)CS3)cc1` the Potency was inconclusive: 22.4 µM [inhibitor, partial curve].
`Cc1ccc(CN2CCCn3nc(C(=O)NCc4ccc(N(C)C)cc4)cc3C2=O)cc1` was tested, and the Potency was “inactive”.
For `Cc1cc(Nc2ccc3ccccc3c2)n2ncnc2n1`, the Potency was inconclusive: 22.4 µM [inhibitor, partial curve].
With `O=C(NCc1ccc(F)cc1)c1noc2c1CCCCC2` the Potency was inconclusive: 35.5 µM [inhibitor, single point].
With `CCN(CC)S(=O)(=O)c1c(Br)cc(C)cc1Br` the Potency was inconclusive: 28.2 µM [inhibitor, partial curve].
With `O=C(CCn1cccc1)Nc1cc(F)ccc1F` the Potency was inconclusive: 22.4 µM [inhibitor, partial curve].
With `O=C(CCC1CCCCC1=O)c1ccccc1` (configuration not stated) the Potency was inconclusive: 31.6 µM [inhibitor, partial curve].
`COc1ccc(Cl)cc1NC(=O)CCc1ccccc1` was tested, and the Potency was inconclusive: 14.1 µM [inhibitor, partial curve, poor fit].
In the case of `O=C(CCC(=O)N(CC(=O)NC1CCCCC1)c1ccc2c(c1)OCCO2)Nc1ccccn1`, the Potency is reported as “inactive”.
For `CC(=O)Nc1ccc(S(=O)(=O)Oc2ccc(N3C(=O)C4CCCCC4C3=O)cc2)cc1` (configuration not stated), the Potency was inconclusive: 31.6 µM [inhibitor, partial curve].
`CC(C)Cc1nc(Nc2ccccc2C#N)c2nnn(Cc3ccccc3)c2n1` was tested, and the Potency was inconclusive: 35.5 µM [inhibitor, partial curve].
`CC(C)CCN(C(=O)Nc1ccc(Cl)c(Cl)c1)C1CCN(C(C)C)CC1` was tested, and the Potency was inconclusive: 28.2 µM [inhibitor, partial curve].
`O=C(NCc1ccco1)C1CC(=O)N(CCc2ccccc2)C1` (configuration not stated) was tested, and the Potency was inconclusive: 25.1 µM [inhibitor, partial curve, poor fit].
With `Cc1ccc(NC(=O)N2CC3CCCN3c3ccccc32)cc1Cl` (configuration not stated) the Potency was inconclusive: 56.2 µM [inhibitor, single point].
For `Cc1csc(SCC(=O)Nc2ccccc2[N+](=O)[O-])n1`, the Potency was inconclusive: 22.4 µM [inhibitor, partial curve].
With `Cc1ccc2c(c1)SC1=NC(c3ccccc3)(C(F)(F)F)NC(=O)N12` (configuration not stated) the Potency was inconclusive: 31.6 µM [inhibitor, partial curve].
With `COC(=O)c1c(C)n(-c2ccccc2)c2ccc(O)cc12` the Potency was inconclusive: 31.6 µM [inhibitor, partial curve].
For `COc1ccc(/C=C(\NC(=O)c2ccccc2)C(=O)N/N=C/c2ccncc2)cc1`, the Potency was inconclusive: 44.7 µM [inhibitor, single point].
`CNC(=O)c1[nH]cnc1C(=O)N[C@@H](Cc1ccccc1)C(=O)OCc1ccccc1` was tested, and the Potency was inconclusive: 35.5 µM [inhibitor, partial curve].
`COC(=O)c1ccc(/C=N/NC(=O)CNc2cccc(C)c2)cc1` was tested, and the Potency was inconclusive: 3.55 µM [inhibitor, full curve].
In the case of `COc1cc(/C=C/C(=O)NNc2c(F)c(F)cc(F)c2F)ccc1OC(F)F`, the Potency is reported as inconclusive: 28.2 µM [inhibitor, single point].
For `Cc1nc(SCC(=O)c2ccccc2)c([N+](=O)[O-])[nH]1`, the Potency was inconclusive: 39.8 µM [inhibitor, single point].
With `COc1ccc(C=O)cc1COc1ccc([N+](=O)[O-])c(C)c1` the Potency was inconclusive: 28.2 µM [inhibitor, partial curve].
`Cc1cc(-n2c(C)cc(C(=O)COc3ccccc3[N+](=O)[O-])c2C)no1` was tested, and the Potency was inconclusive: 31.6 µM [inhibitor, partial curve].
With `CCc1ccccc1NC(=O)Cn1nnc2sc3c(c2c1=O)CCC(C(C)(C)C)C3` (configuration not stated) the Potency was inconclusive: 14.1 µM [inhibitor, partial curve].
With `CN(C)c1ccc(/C=C/c2cc[n+]([O-])cc2)cc1` the Potency was “inactive”.
`Cc1ccc(S(=O)(=O)NC(=O)NN2CCCCCC2)cc1` was tested, and the Potency was “inactive”.
With `COc1ccccc1C1/C(=C(/O)c2ccc(OC(C)C)cc2)C(=O)C(=O)N1c1cc(C)on1` (configuration not stated) the Potency was inconclusive: 28.2 µM [inhibitor, partial curve].
With `O=C(O)c1cc(S(=O)(=O)N2CCCCC2)sc1Cl` the Potency was “inactive”.
In the case of `COc1ccc(Nc2c(-c3ccc(C)cc3)nc3cnccn23)cc1`, the Potency is reported as inconclusive: 31.6 µM [inhibitor, single point].
With `COc1cccc(NC(=O)Cn2c(CCC(=O)O)ccc2-c2ccc(C)cc2)c1` the Potency was “inactive”.
In the case of `O=C(NC(=S)Nc1ccccc1Cl)c1csnn1`, the Potency is reported as inconclusive: 39.8 µM [inhibitor, partial curve].
`Cc1ccc(CNC(=O)Cn2cccc2C(=O)c2ccccc2)cc1` was tested, and the Potency was inconclusive: 11.2 µM [inhibitor, full curve, poor fit].
With `CC(C)c1nn2c(=O)cc(COC(=O)C3CCCCC3)nc2s1` the Potency was inconclusive: 56.2 µM [inhibitor, single point].
For `CC(=O)c1c(C)oc2ccc(NS(=O)(=O)c3ccc(C)cc3)cc12`, the Potency was “inactive”.
In the case of `Cc1ccc(S(=O)(=O)c2nnn3c2nc(NC2CCCCCC2)c2sccc23)cc1C`, the Potency is reported as inconclusive: 4.47 µM [inhibitor, full curve].
In the case of `Cc1ccc(CN2C(=O)CCC2(C)C(=O)NCc2cccnc2)cc1` (configuration not stated), the Potency is reported as inconclusive: 50.1 µM [inhibitor, single point].
`CCOc1ccccc1C1CC(=O)Nc2cc3c(cc21)OCCO3` (configuration not stated) was tested, and the Potency was “inactive”.
With `C=C1c2ccccc2O[C@H](C(=O)OCC)[C@@H]1C1CCCCC1` (tested in a mixture with another compound) the Potency was “inactive”.
`COCCCN1CN(S(=O)(=O)c2ccc(Cl)cc2)c2nc3ccccc3nc21` was tested, and the Potency was inconclusive: 25.1 µM [inhibitor, single point].
`Cc1csc(NC(=O)CSc2nc3ccccc3s2)n1` was tested, and the Potency was “inactive”.
In the case of `Cc1ccc(OC(=O)c2cccc(S(=O)(=O)N3CCCC3)c2)c(-n2nc3ccccc3n2)c1`, the Potency is reported as inconclusive: 20 µM [inhibitor, partial curve].
`CCn1c(CNC(=O)COc2ccc(C(C)C)cc2)nnc1SCC(=O)Nc1cc(F)ccc1C` was tested, and the Potency was “inactive”.
In the case of `Nc1cc(N)nc(SCC(=O)N2CCc3ccccc32)n1`, the Potency is reported as inconclusive: 11.2 µM [inhibitor, partial curve].
In the case of `O=C(Nc1ccccc1)c1ccccc1Oc1ccc(C(F)(F)F)cc1[N+](=O)[O-]`, the Potency is reported as inconclusive: 56.2 µM [inhibitor, single point].
For `O=C1C=C(c2ccc(Cl)cc2)C(=O)N1Nc1ccccc1`, the Potency was inconclusive: 50.1 µM [inhibitor, single point].
With `Cc1ccccc1N1C(=O)c2cccc3c(N(C)CCO)ccc(c23)C1=O` the Potency was “inactive”.
For `Cc1cc(Br)cc(C)c1NC(=O)c1sc2ncn(Cc3cccc(F)c3)c(=O)c2c1C`, the Potency was inconclusive: 11.2 µM [inhibitor, partial curve].
`Cc1cccc(OC(=O)Cn2c(C(F)(F)F)nc3ccccc32)c1` was tested, and the Potency was inconclusive: 44.7 µM [inhibitor, partial curve, poor fit].
